Values quoted from earlier work, collected in patent US4808614A (priority 1987, dated 1989).

Test system: herpes virus
Settings: cited from earlier work

| Compound | activity against herpes virus |
| --- | --- |
| O=c1[nH]c(=O)n([C@H]2C[C@H](O)[C@@H](CO)O2)cc1C=CBr [5-(2-bromovinyl)-2'-deoxyuridine] | potent agent against herpes virus |
| Nc1nc2c(ncn2COCCO)c(=O)[nH]1 [9-(2-hydroxyethoxymethyl)guanine] | potent antiviral agent, especially useful against herpes viruses |
